Several values for one entry are separate records, joined by “and”; a condition that tells them apart may be missing. Equal entries are not always repeated. Among all 110,000 compounds or so, about 230 (0.21%) showed an effect of 50% or more. The list shows a part of the results.
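Further: 30 min substrate incubation versus DMSO and 10 µM JCP410 controls.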

Sequence of DPAP1 (Q8IIJ9 whole entry, looked up): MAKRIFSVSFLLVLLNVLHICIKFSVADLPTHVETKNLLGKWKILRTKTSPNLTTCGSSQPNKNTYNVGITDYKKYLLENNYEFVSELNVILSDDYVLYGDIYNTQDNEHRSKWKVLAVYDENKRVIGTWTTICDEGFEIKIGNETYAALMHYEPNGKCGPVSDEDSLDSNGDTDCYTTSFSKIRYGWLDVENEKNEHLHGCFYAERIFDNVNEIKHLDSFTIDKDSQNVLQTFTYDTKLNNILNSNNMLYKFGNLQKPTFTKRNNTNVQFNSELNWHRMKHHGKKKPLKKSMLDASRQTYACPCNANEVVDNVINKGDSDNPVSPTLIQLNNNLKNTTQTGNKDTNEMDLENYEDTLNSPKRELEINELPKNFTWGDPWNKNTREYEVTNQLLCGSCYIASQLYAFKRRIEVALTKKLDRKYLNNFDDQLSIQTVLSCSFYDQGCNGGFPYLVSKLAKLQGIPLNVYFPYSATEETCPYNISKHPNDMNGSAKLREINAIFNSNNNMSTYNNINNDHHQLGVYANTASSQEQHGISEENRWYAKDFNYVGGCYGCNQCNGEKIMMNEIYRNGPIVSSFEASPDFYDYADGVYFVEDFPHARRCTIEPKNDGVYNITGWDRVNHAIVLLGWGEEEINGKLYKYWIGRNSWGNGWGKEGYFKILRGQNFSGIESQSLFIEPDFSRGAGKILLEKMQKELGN

The assay concerns the target DPAP1 (Plasmodium falciparum, UniProt Q8IIJ9). Briefly: primary screen, percent inhibition; read by cleavage of a fluorogenic dipeptide substrate; higher = more effect of the substance. Also noted: species or system P. falciparum D10 trophozoite lysates; single well.
For `O=C(Cn1nc(Cc2ccncc2)c2ccccc2c1=O)N1CCN(Cc2ccccc2)CC1`, the “% Inhibition @ 10 uM” value worked out at 2.04%.

Take `COc1cccc(CNc2ccc(Br)c(C)c2)c1OC`: the “% Inhibition @ 10 uM” value is 0.00519%.

With `C=CCn1c(-c2ccc(C)cc2)cs/c1=N\c1cccc(O)c1`, the “% Inhibition @ 10 uM” value worked out at 2.33%.

For the molecule `CCn1ccnc1C(O)c1ccc(OC)c(OC)c1` (stereo not shown), the “% Inhibition @ 10 uM” value turned out to be 1.39%.

For the molecule `O=C(CCc1ccccc1)Nc1cccnc1`, the “% Inhibition @ 10 uM” value is on record as 1.83%.

With `COc1cc(OC)c(CNC23CC4CC(CC(C4)C2)C3)cc1Br`, the “% Inhibition @ 10 uM” value is -2.58%.

In the case of `CCCOc1ccc(N2C(=O)CC(N3CCN(c4ncccn4)CC3)C2=O)cc1` (stereo not shown), the “% Inhibition @ 10 uM” value was -9.13%.

On to `COC(=O)c1ccc(NC(=O)c2c(C(=O)O)cccc2[N+](=O)[O-])cc1`, for which the “% Inhibition @ 10 uM” value was -0.0369%.

In the case of `N=C1/C(=C\c2ccc(Br)o2)C(=O)N=C2SC(N3CCCCC3)=NN12`, the “% Inhibition @ 10 uM” value is given as -3.44%.

Take `NC(=O)CSc1nc2ccccc2[nH]1`: the “% Inhibition @ 10 uM” value is -1.86%.

Take `CC(=O)N1CCC(N(CCCN2CCC(C)CC2)C(=O)NC23CC4CC(CC(C4)C2)C3)CC1`: the “% Inhibition @ 10 uM” value came to 6.08%.

Regarding `CCCOc1ccc(C(=O)N(Cc2ccc(C)cc2)Cc2ccco2)cc1`, the “% Inhibition @ 10 uM” value was 1.25%.

As for `CC1CCN(S(=O)(=O)N2CCC(C(=O)NC(C)c3ccccc3)CC2)CC1` (stereo not shown), the “% Inhibition @ 10 uM” value is recorded as -1.34%.

As for `Cc1ccc(COc2ccc(/C=C3\SC(=O)N(CC(=O)N4CCOCC4)C3=O)cc2)cc1`, the “% Inhibition @ 10 uM” value was -8.88%.

As for `CCCOc1ccc(C(=O)Nc2ccc(-c3nc4ncccc4o3)cc2)cc1`, the “% Inhibition @ 10 uM” value is 2.13%.

For the molecule `O=C(Nc1cccc([N+](=O)[O-])c1)c1cccc(S(=O)(=O)N2CCCCC2)c1`, the “% Inhibition @ 10 uM” value came out at 15.7%.

Turning to `Cc1ccc(-c2nc(CS(=O)CC(=O)Nc3cccnc3)c(C)o2)cc1` (stereo not shown), the “% Inhibition @ 10 uM” value was found to be 0.238%.

For the molecule `CCC(N)C(=O)c1ccc(Br)cc1` (stereo not shown), the “% Inhibition @ 10 uM” value is -8.01%.

For `COc1ccc(-c2ccccc2)cc1NCC1CC=CCC1` (stereo not shown), the “% Inhibition @ 10 uM” value is reported as -4.14%.

As for `Cc1cccc(NC(=O)CC2SC(Nc3ccccc3C)=NC2=O)c1` (stereo not shown), the “% Inhibition @ 10 uM” value was found to be 3.17%.

Take `COc1ccc(CN(C(=O)c2cccc(OC)c2)C2CCS(=O)(=O)C2)cc1` (stereo not shown): the “% Inhibition @ 10 uM” value came to 4.88%.

With `CCCn1c(CCC(=O)NCCc2cc(OC)ccc2OC)nc2cccnc21`, the “% Inhibition @ 10 uM” value worked out at 0.66%.

Regarding `O=C(NCCCN1CCOCC1)c1cn(-c2ccccc2)nc1-c1ccccc1`, the “% Inhibition @ 10 uM” value amounted to 0.716%.

As for `O=C(CN1Cc2ccccc2C1=O)NCc1ccccc1`, the “% Inhibition @ 10 uM” value is on record as -4.1%.

As to `CCOc1cc2c(c([N+](=O)[O-])c1)NC(C(C)C)C1CC=CC21` (stereo not shown), the “% Inhibition @ 10 uM” value stood at 1%.

With `CCc1c(C)sc(NC(=O)c2ccc3c(c2)OCO3)c1C(N)=O`, the “% Inhibition @ 10 uM” value turned out to be 8.71%.

In the case of `CC(C)CN(CC(C)C)C(=O)CC(=O)NC(=O)c1ccc(Cl)cc1`, the “% Inhibition @ 10 uM” value is -4.35%.

Consider `C=CCn1c(Cc2csc(N)n2)nnc1SCC(=O)Nc1sc(C)c(C)c1C(=O)OCC`, for which the “% Inhibition @ 10 uM” value is on record as -3.37%.

With `N#CC(NC(=O)[C@H](CS(=O)(=O)Cc1ccccc1)NC(=O)N1CCOCC1)c1cccs1` (stereo partly shown), the “% Inhibition @ 10 uM” value amounted to 0.079%.

Consider `CC1=C(C(=O)Nc2ccccc2)C(c2ccc(F)cc2)NC(=O)N1` (stereo not shown), for which the “% Inhibition @ 10 uM” value amounted to 7.71%.

Regarding `O=C(Cn1nc(Cc2cccnc2)c2ccccc2c1=O)Nc1cccnc1Cl`, the “% Inhibition @ 10 uM” value is reported as -6.52%.

For `CC(C)c1ccc(CN2CCc3c([nH]c4ccccc34)C2)cc1`, the “% Inhibition @ 10 uM” value is reported as -5.65%.

In the case of `CCOC(=O)c1c(NC(=O)c2c([N+](=O)[O-])cnn2C)sc2c1CCCC2`, the “% Inhibition @ 10 uM” value is -0.999%.

Regarding `Oc1cc(CN2CCc3ccccc3C2)c2ccccc2n1`, the “% Inhibition @ 10 uM” value is 2.5%.

For `CC(C)C(=O)N(Cc1ccc(Cl)cc1)C1CCS(=O)(=O)C1` (stereo not shown), the “% Inhibition @ 10 uM” value is -1.42%.

As to `CN(C)c1ccc2nc3c(=O)[nH]c(=O)[nH]c3nc2c1`, the “% Inhibition @ 10 uM” value was 0.962% and 2.23%.

`OCC/N=C/c1[nH]c2ccccc2c1O`: the “% Inhibition @ 10 uM” value turned out to be 0.0345%.

On to `COc1ccc(C2C(C#N)=C(N)OC3=C2C(=O)CCC3)cc1COc1ccc(F)c(Cl)c1` (stereo not shown), for which the “% Inhibition @ 10 uM” value is reported as -0.68%.

For `Cc1ccc(N2C(=O)CC(NCCc3ccccc3F)C2=O)cc1` (stereo not shown), the “% Inhibition @ 10 uM” value is recorded as -7.61%.

As for `Cc1ccsc1C1C2=C(O)CCCC2=Nc2ncnn21` (stereo not shown), the “% Inhibition @ 10 uM” value is listed as -5.14%.

Consider `COc1ccc(OC)c(/C=C2\N=C(c3ccc(-c4ccccc4)cc3)OC2=O)c1`, for which the “% Inhibition @ 10 uM” value is recorded as -31.7%.

For `CCCCCC(=O)N(CN1C(=O)CCC1=O)c1ccccc1`, the “% Inhibition @ 10 uM” value is -4.68%.

`COc1cc(/C=C2\SC(=O)N(Cc3c(F)cccc3Cl)C2=O)ccc1OC(C)C(=O)O` (stereo not shown): the “% Inhibition @ 10 uM” value is reported as -1.81%.

As to `CCN(CC)CCCNC(=O)C1CCN(C(=O)c2cnn(-c3ccccc3)c2-n2cccc2)CC1`, the “% Inhibition @ 10 uM” value is -1.58%.

Consider `COC(=O)c1ccc(C2NN=C(c3ccccc3)S2)cc1` (stereo not shown), for which the “% Inhibition @ 10 uM” value was found to be 3.32%.

On to `Cc1ccccc1C(=O)c1cccn1CC(=O)N1CCCCCC1`, for which the “% Inhibition @ 10 uM” value came to 1.15%.

For `Cc1ccc(-c2nc(C(=O)N3CCC4(CC3)OCCO4)c3n2CCCCC3)cc1`, the “% Inhibition @ 10 uM” value was -9.15%.

With `C#CCSc1nsc(SCC#C)c1C#N`, the “% Inhibition @ 10 uM” value was found to be 4.95%.

Regarding `Cc1ccc(N(O)C(=O)Nc2ccccc2[N+](=O)[O-])cc1`, the “% Inhibition @ 10 uM” value is recorded as 1.66%.

`Cc1ccc(CCn2c(C)c(C)c3ccccc32)cn1`: the “% Inhibition @ 10 uM” value worked out at 2.62%.

On to `COc1ccccc1C1=N/C(=C\c2ccc3c(c2)OCO3)C(=O)O1`, for which the “% Inhibition @ 10 uM” value was 1.61%.

As for `CCOc1ccc2c(c1)[N+](C)=C(/C=C/c1ccc(C(=O)OC)cc1)C2(C)C`, the “% Inhibition @ 10 uM” value is reported as 0.627%.

`CC1(C)Cc2c(C#N)c(SCC(=O)O)nc(N3CCOCC3)c2CO1`: the “% Inhibition @ 10 uM” value amounted to 10.1%.

As for `COc1ccc(C(=O)c2cc(C)ccc2OC)cc1`, the “% Inhibition @ 10 uM” value came to 5.4%.

On to `COc1ccc(CNC(=O)Cn2c(-c3nonc3N)nc3ccccc32)cc1`, for which the “% Inhibition @ 10 uM” value is recorded as -4.11%.

As for `O=C(O)c1cccc(NC(=O)C(c2ccccc2)c2ccccc2)c1`, the “% Inhibition @ 10 uM” value is reported as -1.26%.

Take `Nc1ccccc1C(=O)Nc1ccc2c(c1)OCO2`: the “% Inhibition @ 10 uM” value was -0.95%.

Consider `CC(C)c1[nH]nc2c1C(c1ccccc1C(F)(F)F)C(C#N)=C(N)O2` (stereo not shown), for which the “% Inhibition @ 10 uM” value was determined as 3.62%.

Turning to `COC(=O)c1cc2sc(Cl)cc2n1CC(=O)N1CCCC1`, the “% Inhibition @ 10 uM” value was -3.5%.

As for `Nc1c(S(=O)Cc2ccc(Cl)cc2)sc2nc3c(cc12)CCCC3` (stereo not shown), the “% Inhibition @ 10 uM” value was -0.178%.

Turning to `CCC(Oc1ccccc1)c1nc2ccccc2n1CC` (stereo not shown), the “% Inhibition @ 10 uM” value was 3.81%.

In the case of `COc1cc(OC)cc(-c2cc(N)n(S(=O)(=O)c3ccc(OC)c(OC)c3)n2)c1`, the “% Inhibition @ 10 uM” value is reported as -2.19%.

As for `O=C(NCc1ccco1)c1cccc2c1C(=O)N(C1CCCCC1)C2`, the “% Inhibition @ 10 uM” value stood at 1.23%.

As for `COc1cc(Cl)cc(/C=C2\SC(=O)N(CC(=O)Nc3ccc(C)cc3)C2=O)c1O`, the “% Inhibition @ 10 uM” value amounted to 14.6%.

For the origin of these results see paper PMC6919601, “Identification of Plasmodium dipeptidyl aminopeptidase allosteric inhibitors by high throughput screening” (PLoS ONE, 2019).
